Values marked as one replicate rest on one cluster of the flow cell; about a third of the high ones do not repeat.
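Further: ATP exposure 15 min at 22 °C before imaging.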

This series has as its system ATP. Description: switch fluorescence ratio, 500 uM ATP over buffer (Cy3 cluster intensity, sum of 5 cycles each) (fold (ratio)); higher = stronger signal-on switching upon ATP binding; sequences stand for … in TCGTCGGCAGCGTCAGATGTGTATAAGAGACAGTTTTTTTTTTTTTTTTTTTTTTTTT…TC. The note with it: aptamer strand: ATP DNA aptamer (quencher-CACCTGGGGGAGTATTGCGGAGGAAGG + anchor), 100 nM annealed; ATP concentration: 500 uM; one replicate. The method in brief:
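Per cluster, summed Cy3 intensity from the target cycles was divided by that from the buffer cycles to give the fluorescence ratio, then averaged per switch-domain sequence. Clusters outside 100-1000 RFU were excluded. The Cy3-labelled switching-strand clusters, on a modified Illumina MiSeq flow-cell, were annealed to 100 nM quencher-labelled ATP aptamer and imaged in selection buffer, then after 15 min with 500 uM ATP at 22 °C, for five cycles with NaOH stripping and re-annealing between them.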
With ATGACTGCGG, the switch fluorescence ratio is 0.999.

Regarding TTGACCTCAG, the switch fluorescence ratio came out at 1.

TCGGGGCAAT: the switch fluorescence ratio turned out to be 3.63. Take ACTACGGTAG: the switch fluorescence ratio was 1.02. For TTAGGCGATA, the switch fluorescence ratio was 1.

On to CATATATCTT, for which the switch fluorescence ratio came to 0.948.

CGGGACCTG: the switch fluorescence ratio stood at 1.01. Turning to GAAAATGTGG, the switch fluorescence ratio came out at 0.988. As to GGGTGGGAC, the switch fluorescence ratio was determined as 0.987. Consider AGCATATAAT, for which the switch fluorescence ratio is 1.06. Consider CTCTTAGTC, for which the switch fluorescence ratio was found to be 1.02. For GCCGGCTAGT, the switch fluorescence ratio is 1.02.

As for ATCGCTACGC, the switch fluorescence ratio stood at 1.06. Under GCGAGGATTG stands 1.01; under TGATTTCCTT, 1.03; under ACTTAAGCTT, 1.1. Consider AGTCCGGTGT, for which the switch fluorescence ratio amounted to 1.03. Under GAGTCAATT stands 1.03; under TTAGACTGG, 1.02; under GTTGCTGATG, 0.976. TTAGTGGACA: the switch fluorescence ratio turned out to be 1.03. Take GTTACCGTTC: the switch fluorescence ratio was 1.06.

Consider AGGTCAATCC, for which the switch fluorescence ratio is 1.01. With GGGTGATCTG, the switch fluorescence ratio worked out at 1.04. For the sequence AACCCTCGCT, the switch fluorescence ratio amounted to 1.12.

Take ATCTAGCGTT: the switch fluorescence ratio was 0.987. Consider CAGGTGCTAA, for which the switch fluorescence ratio was 1.19.

Consider CAAGAGGATA, for which the switch fluorescence ratio came to 0.966. Under GCACGAGTTA stands 0.996; under CCTAACGTAG, 1.01; under ATGGTACGCT, 1.03. Then GCTGAATAGT, with 1.01; and TATGCCAGGA, with 0.958.

Take TCGATGTGGG: the switch fluorescence ratio was found to be 0.955. As for ATAGGGGACC, the switch fluorescence ratio was 0.998. AGTGAAAAGC: the switch fluorescence ratio came out at 0.99. Consider CGAGTCTTTC, for which the switch fluorescence ratio is 1.06. CACGGGTTAT: the switch fluorescence ratio was 1.02.

For CGTATGGA, the switch fluorescence ratio came out at 0.972. Then AGGATTTGAT, with 0.995. Then GCAGGTTATT, with 1; and GTCAGGAT, with 1.01. Consider AACGATTCGT, for which the switch fluorescence ratio stood at 1. In the case of CGATCTTTCA, the switch fluorescence ratio was 1.01. For the sequence TATAGGGACC, the switch fluorescence ratio was 0.978. Then TTAGAATTCG, with 0.999; and TAATTTACTT, with 1.05. In the case of TGTCGCAATT, the switch fluorescence ratio stood at 2.38. Regarding AAGATTGGCA, the switch fluorescence ratio is 0.966. For GTGTTCCGTC, the switch fluorescence ratio was 1.

On to TCTTGTGGGT, for which the switch fluorescence ratio was 0.972. Then ATTCGACAGC, with 1.03; and TTATGTTT, with 0.991. As for CCCACTAATG, the switch fluorescence ratio is 0.981.

As for ATCTAAGGCT, the switch fluorescence ratio stood at 1.

As for TATCATGCTG, the switch fluorescence ratio worked out at 1. Turning to TTGAGCTCCG, the switch fluorescence ratio turned out to be 1.03. On to GGTTGCAGCA, for which the switch fluorescence ratio came out at 1.1. Consider GCTATATGTT, for which the switch fluorescence ratio stood at 1.01. Under CGATACCCGA stands 1.04; under GACTGGAGCC, 1.09. As to CTCGATCCGC, the switch fluorescence ratio came to 1.51.

Take CAGCTTAGGC: the switch fluorescence ratio turned out to be 0.985. Consider GACCTTAGGC, for which the switch fluorescence ratio stood at 1.03. In the case of CGCTAGGGGC, the switch fluorescence ratio was determined as 1.07.

In the case of TTACGTCGTC, the switch fluorescence ratio was 1.11. Turning to ACTCGGTGCG, the switch fluorescence ratio stood at 1.05. Regarding GAAAGTAGCG, the switch fluorescence ratio is 1.03.

Regarding TCTTGCATCC, the switch fluorescence ratio amounted to 1.08. AATGAGATGA: the switch fluorescence ratio was found to be 0.922. GCTGGGTCCT: the switch fluorescence ratio was 1.06.

As to CGGAAGGCGC, the switch fluorescence ratio was 0.97.

For the sequence ATCAGGGTTA, the switch fluorescence ratio was 0.965. On to CGAGGATTCT, for which the switch fluorescence ratio came out at 0.971. For TTTTCTGGAC, the switch fluorescence ratio was 1. As to CACAGCCGCC, the switch fluorescence ratio was determined as 1.35.

Regarding TGTTTGCATG, the switch fluorescence ratio was determined as 1.01. Under CGAGATTTGA stands 0.966; under TACTTCGGTC, 1.04.

In the case of TGCGAACACG, the switch fluorescence ratio was 1.01. Consider GGCTCCTCGC, for which the switch fluorescence ratio is 1.11. In the case of CTCCGGGAAT, the switch fluorescence ratio was determined as 3.67. For GTTATTGTTA, the switch fluorescence ratio turned out to be 0.996.

On to TATCAGCGTA, for which the switch fluorescence ratio came to 0.954.

As to TTAGGATCGG, the switch fluorescence ratio stood at 0.995. Under CGGAGAGGAC stands 1.09; under CACGGTCATT, 1.03; under AAAAGTTCAG, 0.943.

As to TTACAACTAA, the switch fluorescence ratio stood at 1.05. On to AAGGGGGAAA, for which the switch fluorescence ratio amounted to 0.988.

As for AATATTACCA, the switch fluorescence ratio came to 1.04. Under TTTTCATG stands 0.975. Then TGAGGGGCT, with 0.948; and TTACGAGTTT, with 0.993.

In the case of CCCGACTAAG, the switch fluorescence ratio turned out to be 0.987.

Consider AATTATCCGA, for which the switch fluorescence ratio turned out to be 0.989.

As to CAAGATCCCG, the switch fluorescence ratio worked out at 0.991. GTTCACCCGC: the switch fluorescence ratio was 1.38.

In the case of AGGTTCGGGA, the switch fluorescence ratio came out at 0.989. Under TTGGGTTACC stands 0.969; under GCTAGTGTGC, 0.977; under TAATGACTCG, 1.05. Then GATTACCGTT, with 0.998.

For GCTCCGCTCT, the switch fluorescence ratio was determined as 3.38. With AATGTTTGGA, the switch fluorescence ratio stood at 1.01. In the case of GAGCGTCTAC, the switch fluorescence ratio amounted to 1.09. TTATATTCGA: the switch fluorescence ratio was found to be 1. Turning to AATGAGGTTC, the switch fluorescence ratio came to 0.992. For TGGAAAAAGA, the switch fluorescence ratio amounted to 1.

For ACCTGCCTGG, the switch fluorescence ratio amounted to 1.03. Then CTGTATTTTG, with 1.06; and ACGTATAATT, with 1.07; and TTATAGTAGG, with 1. TGGGCTCAC: the switch fluorescence ratio is 0.974. As for CCGTACTGCA, the switch fluorescence ratio amounted to 2.14. On to TTGCGCATTT, for which the switch fluorescence ratio was found to be 1. ACAACAATCG: the switch fluorescence ratio is 0.996. Turning to TAGCCCCTTT, the switch fluorescence ratio is 0.959.

With GTGCTTTTTA, the switch fluorescence ratio came to 1.1.

With GTGTCTTAGA, the switch fluorescence ratio was determined as 0.953.
